# Experimental data reported in patent US12521446B2, “Anti-CEACAM5 antibody drug conjugates” (Bristol-Myers Squibb Company, priority 2024, dated 2026).
# Legend:
# [1] = molecular target: T1, human CEACAM7 (Homo sapiens, UniProt Q14002); assay: SPR binding to human CEACAM7; settings: data not shown
# T1 construct: purchased R&D Systems 9010-CM-050
# T1 sequence (Q14002 36-242): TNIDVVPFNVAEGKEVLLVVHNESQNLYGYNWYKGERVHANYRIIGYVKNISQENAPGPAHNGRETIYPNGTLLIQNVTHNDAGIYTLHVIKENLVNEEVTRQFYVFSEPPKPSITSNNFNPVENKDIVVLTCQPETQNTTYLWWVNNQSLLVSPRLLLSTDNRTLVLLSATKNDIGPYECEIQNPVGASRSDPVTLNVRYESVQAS
# Text: (§1) The CEACAM5 mAbs were similarly examined for binding to human CEACAM8 (R&D Systems catalog #9639-CM-050).
# [2] = test system: full-length cyno CEACAM5; assay: SPR kinetics of progeny antibodies (BIACORE), Example 8; format: binding, cynomolgus; settings: hIgG1 progeny antibodies, Table 12B; for Kd: read-out: cyCEACAM5 KD
# [3] = test system: Ls174T; assay: Internalization of progeny antibodies (Incucyte, pHrodo red), Example 9; format: cell-based; settings: hIgG1 progeny, 25 nM mAb, Table 13B
# Procedure: (§2) The MKN45 or Ls174T cells were seeded at 10K cells/well (50 uL).
# (§3) Cell lines were first analyzed for cell density and viability using a Vi-cell viability machine. The cell lines were diluted to 0.2E6 vc/mL in growth media, and a volume (50 uL) of each was dispensed to a flat-bottom 96-well plate to achieve cell counts of 10K cells/well. Ls174T media included MEM with 10% HI-FBS and 1% pen/strep. MKN45 media included RPMI (ATCC modification) with 10% HI-FBS and 1% pen/strep. HCT-116 media included McCoy's 5a with 10% HI-FBS, 1% pen/strep, and 6 μg/mL Blasticidin. Cells were allowed to adhere to wells of the 96-well plate (Corning Cat. No. 3595) at 37° C./5% CO2 for approximately 4 hours.
# Each test mAb and control mAb was labeled by first pre-mixing the respective antibody with a pHrodo red (Fab conjugated to pH-sensitive; Thermo cat #Z25612) secondary reagent at a 3:1 dye:mAb molar ratio. A series of dilutions were prepared at 2× target concentration in growth media. The final mAb target concentration was 25 nM. […]
# (§4) Coated plates contacted with the labeled mAbs were incubated at 37° C. for 30 minutes. Each plate was then read using an Incucyte apparatus, which collected images from the red and phase channels [10× objective; 3 images/well] for a 24-hour duration, with reads of plates every 30 minutes.
# [4] = test system: human CEACAM1 (CHO-S) and human CEACAM6 (HCT-116); assay: Non-specific binding to cell lines engineered to express human CEACAM1 and human CEACAM6; settings: HCT-116 (CEACAM6), FIG. 8A, 8B
# Text: Note that these progeny were also made in a hIgG1 form 1 as opposed to the hIgG1.3f form described in this Example. Both the hIgG1 form and the hIgG1.3f form shared the same heavy chain variable region and the same light chain variable region, i.e., only the CH2 regions of heavy chain were adapted, such that their binding characteristics would be expected to be similar.
# [5] = test system: MKN45; assay: Internalization of progeny antibodies (Incucyte, pHrodo red), Example 9; format: cell-based; settings: hIgG1 progeny, 25 nM mAb, Table 13B
# Procedure: Antibodies were evaluated for internalization using HCT-116-huCEACAM5, HCT-116-cyCEACAM5, and MKN45 cell lines.
# as §2, §3
# Each test mAb and control mAb was labeled by first pre-mixing the respective antibody with a pHrodo red (Fab conjugated to pH-sensitive; Thermo cat #Z25612) secondary reagent at a 3:1 dye:mAb molar ratio. A series of dilutions were prepared at 2× target concentration in growth media. The final mAb target concentration was 25 nM. A volume (50 uL) of labeled mAb samples were added to the plated cells to achieve a target mAb concentration (25 nM).
# as §4
# [6] = test system: BxPC3 cells and MKN45 cells as target cells; assay: ADCC Jurkat-NFAT-FcγRIIIa (Promega) reporter cell assay; format: cell-based; settings: six hours co-incubation with Jurkat-FcγRIIIa effector cells
# Procedure: FIGS. 11A-11B are graphs showing the ADCC activity of anti-human CEACAM5 mAbs in Jurkat-NFAT-FcγRIIIa (Promega) cell assays across CEACAM5-medium expressing BxPC3 (FIG. 11A) and CEACAM5-high expressing MKN45 (FIG. 11B) cells.
# ADCC activity was also analyzed with anti-human lead CEACAM5 mAbs in a Jurkat-NFAT-FcγRIIIa (Promega)cell assay (catalog number G9901) using BxPC3 cells and MKN45 cells as target cells. […] Jurkat-FcγRIIIa effector cells were then co-incubated with targets cells for six hours. NFAT activation, reflecting the induced ADCC response, was assessed by determining luciferase activity.
# [7] = molecular target: T2, full-length human CEACAM5 (Homo sapiens, UniProt P06731, T210S); assay: SPR kinetics of progeny antibodies (BIACORE), Example 8; format: binding; settings: hIgG1 progeny antibodies, Table 12B
# T2 construct: The SPR kinetics against full-length human and cyno CEACAM5 were set up as follows
# T2 sequence (P06731 35-702 T210S): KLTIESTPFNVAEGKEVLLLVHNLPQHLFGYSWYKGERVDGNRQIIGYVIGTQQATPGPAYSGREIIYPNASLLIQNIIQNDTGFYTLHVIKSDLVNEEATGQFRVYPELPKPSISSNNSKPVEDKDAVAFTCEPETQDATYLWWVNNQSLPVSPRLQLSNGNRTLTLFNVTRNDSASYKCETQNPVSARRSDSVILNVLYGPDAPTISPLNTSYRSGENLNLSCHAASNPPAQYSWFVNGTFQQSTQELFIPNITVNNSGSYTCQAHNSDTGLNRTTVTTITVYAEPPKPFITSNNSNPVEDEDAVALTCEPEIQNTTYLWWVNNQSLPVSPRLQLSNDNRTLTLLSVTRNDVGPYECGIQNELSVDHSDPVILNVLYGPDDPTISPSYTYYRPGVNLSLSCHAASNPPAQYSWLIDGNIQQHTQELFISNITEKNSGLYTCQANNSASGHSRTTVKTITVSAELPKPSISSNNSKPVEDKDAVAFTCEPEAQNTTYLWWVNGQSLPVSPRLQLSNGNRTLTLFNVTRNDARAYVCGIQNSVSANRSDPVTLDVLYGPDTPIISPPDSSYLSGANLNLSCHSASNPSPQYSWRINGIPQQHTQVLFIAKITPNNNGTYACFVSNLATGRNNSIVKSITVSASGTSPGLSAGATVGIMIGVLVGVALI
# [8] = molecular target: T3, human CEACAM8 (Homo sapiens, UniProt P31997); assay: SPR binding to human CEACAM8; settings: data not shown
# T3 construct: purchased R&D Systems 9639-CM-050
# T3 sequence (P31997 35-320): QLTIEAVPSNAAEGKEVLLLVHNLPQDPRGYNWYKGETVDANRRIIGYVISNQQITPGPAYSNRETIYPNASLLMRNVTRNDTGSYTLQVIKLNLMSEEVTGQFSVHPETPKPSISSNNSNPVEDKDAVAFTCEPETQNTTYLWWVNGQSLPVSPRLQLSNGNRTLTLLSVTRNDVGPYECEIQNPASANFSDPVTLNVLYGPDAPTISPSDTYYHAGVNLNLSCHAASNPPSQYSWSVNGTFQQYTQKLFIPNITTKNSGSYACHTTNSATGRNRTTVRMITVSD
# Text: as §1
Molecule,binding to human CEACAM7 by SPR [1],cyCEACAM5 ka [2] [M⁻¹ s⁻¹],cyCEACAM5 kd [2] [s⁻¹],Kd [2] [nM],Ls174T 24 hr red/phase AUC (internalization) [3],non-specific human CEACAM1 and human CEACAM6 cross-reactivity [4],MKN45 24 hr red/phase AUC (internalization) [5],"ADCC activity (NFAT activation, luciferase) [6]",huCEACAM5 ka [7] [M⁻¹ s⁻¹],huCEACAM5 kd [7] [s⁻¹],binding to human CEACAM8 [8]
"MBP003: hIgG1 progeny of MBN001; VH SEQ ID NO: 51, VL SEQ ID NO: 52; IgG1.3f antibody MBP004 (antibody, V domains shown) VH: QVQLVESGGGVVQPGRSLRLSCAASGITFSSHGMHWVRQAPGKGLEWVTFISYDGSYKSYVDSVKGRFTISRDNSKNTLYLQMNSLRAEDTAVYYCATGLTGTGAFDIWGQGTMVTVSS VL: [about 100 residues not shown]",No binding was observed,26400,0.00114,43.1,0.67,absence of non-specific human CEACAM1 and human CEACAM6 cross-reactivity,2.62,limited ADCC activity,42000,0.000982,no binding was observed
"MBP002: hIgG1 progeny of MBN001; VH SEQ ID NO: 49, VL SEQ ID NO: 50; IgG1.3f antibody MBP008 (antibody, V domains shown) VH: QVQLVESGGGVVQPGRSLRLSCAASGITFSSHGMHWVRQAPGKGLEWVTFISYDGSYKSYVDSVKGRFTISRDNSKNTLYLQMNSLRAEDTAVYYCATGLTGTNALDIWGQGTMVTVSS VL: [about 100 residues not shown]YTFGQGTKLEIK",No binding was observed,37800,0.000502,13.3,0.72,absence of non-specific human CEACAM1 and human CEACAM6 cross-reactivity,2.58,limited ADCC activity,43300,0.000228,no binding was observed
